Laboratory results reported in publication PMC4336329 (PLoS ONE, 2015).
Out of some 310,000 compounds screened, about 2,200 (0.71%) showed an effect of 50% or more. Effects have a minus sign here. The list shows a part of the results.

These compounds were tested against human ether-à-go-go-related gene (hERG) potassium channel (human, UniProt Q12809) (assay: primary screen, population patch clamp on CHO cells stably expressing hERG).
Chain of human ether-à-go-go-related gene (hERG) potassium channel (Q12809 whole entry, looked up): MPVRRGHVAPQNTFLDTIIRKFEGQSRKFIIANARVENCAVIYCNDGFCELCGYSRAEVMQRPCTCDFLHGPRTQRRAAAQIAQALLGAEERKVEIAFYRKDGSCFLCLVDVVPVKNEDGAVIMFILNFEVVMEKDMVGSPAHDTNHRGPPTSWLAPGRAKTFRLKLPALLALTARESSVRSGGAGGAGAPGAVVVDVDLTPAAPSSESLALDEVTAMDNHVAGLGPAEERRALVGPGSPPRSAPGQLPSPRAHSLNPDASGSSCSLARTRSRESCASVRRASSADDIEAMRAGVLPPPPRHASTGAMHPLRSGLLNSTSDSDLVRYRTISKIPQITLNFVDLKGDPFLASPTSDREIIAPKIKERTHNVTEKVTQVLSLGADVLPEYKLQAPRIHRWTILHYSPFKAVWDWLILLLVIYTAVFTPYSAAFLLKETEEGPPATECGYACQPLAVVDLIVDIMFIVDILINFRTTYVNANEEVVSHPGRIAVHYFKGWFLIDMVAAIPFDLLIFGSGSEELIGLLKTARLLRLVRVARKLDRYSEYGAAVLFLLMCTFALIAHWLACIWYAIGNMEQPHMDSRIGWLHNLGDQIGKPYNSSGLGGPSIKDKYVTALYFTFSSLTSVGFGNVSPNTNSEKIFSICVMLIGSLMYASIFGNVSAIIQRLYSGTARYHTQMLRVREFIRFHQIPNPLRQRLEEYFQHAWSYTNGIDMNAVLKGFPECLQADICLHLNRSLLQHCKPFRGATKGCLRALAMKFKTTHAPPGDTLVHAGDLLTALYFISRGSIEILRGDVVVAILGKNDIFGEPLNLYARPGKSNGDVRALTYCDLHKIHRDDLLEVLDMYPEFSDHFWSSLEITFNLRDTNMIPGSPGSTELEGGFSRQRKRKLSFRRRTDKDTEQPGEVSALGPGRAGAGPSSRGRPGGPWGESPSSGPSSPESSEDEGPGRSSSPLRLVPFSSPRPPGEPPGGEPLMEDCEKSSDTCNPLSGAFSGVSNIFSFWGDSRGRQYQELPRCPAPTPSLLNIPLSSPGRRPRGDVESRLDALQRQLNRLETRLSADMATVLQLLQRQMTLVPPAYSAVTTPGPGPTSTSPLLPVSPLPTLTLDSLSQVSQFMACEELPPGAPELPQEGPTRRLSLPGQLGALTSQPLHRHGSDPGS

Row | SMILES | hERG current change (%, negative = inhibition) at 1uM [%]
1 | CC(NC(=O)c1ccc(S(=O)(=O)N(C)C)cc1)c1ccccc1 (stereo not shown) | 10.1
2 | Cc1ccc(S(=O)(=O)N(C)C)cc1NC(=O)COC(=O)/C=C/c1ccc2c(c1)OCO2 | 5.79
3 | N#CCC(=O)N/N=C/c1cn(Cc2ccc(Cl)c(Cl)c2)c2ccccc12 | 8.68
4 | COC(=O)Nc1ccc(Oc2ccccc2)cc1 | 3.4
5 | CCn1nnnc1SCC(=O)N1CCCCC1 | 4.24
6 | COC(=O)CNC(=O)c1ccccc1F | 16.1
7 | CC(C(=O)N1CCN=C1c1ccccc1)N1C(=O)c2ccccc2C1=O (stereo not shown) | 22.7
8 | CCOC(=O)CSc1nnc(-c2ccco2)n1-c1ccccc1 | 6.93
9 | CC(C)n1c(SCC(=O)NC2CCCCC2)nnc1-c1ccco1 | 9.33
10 | FC(F)Oc1ccccc1/C=N/Nc1nc2ccccc2o1 | 16.8
11 | CC1(NC(=O)Nc2ccccc2)CCS(=O)(=O)C1 (stereo not shown) | -8.69
12 | CC(=O)NC(Cc1ccccc1F)C(=O)NC1CCN(C(=O)Nc2ccc(C)cc2)CC1 (stereo not shown) | -0.535
13 | N#CCCC1CCCC=C1N(Cc1ccccc1)C(=O)C(Cl)Cl (stereo not shown) | 3.3
14 | CCCCn1c(CNC(=O)Cc2ccccc2)nc2ccccc21 | 19
15 | COc1ccc(C(=O)Nn2c(C)nc3ccccc3c2=O)cc1[N+](=O)[O-] | 8.27
16 | COCC(=O)N(Cc1cc2cc(C)ccc2[nH]c1=O)c1ccc(C)c(C)c1 | 16.4
17 | COC(=O)c1ccc2nc(-c3cccc(N)c3)cn2c1 | 2.83
18 | CN(C)C=NC(=O)c1cc(C(=O)c2ccc(F)cc2)c[nH]1 | -5.67
19 | CCCCC(C)n1[nH]c(=O)cc1N (stereo not shown) | 8.59
20 | O=C(NC1CCCCC1)C(c1ccccc1F)N(Cc1ccco1)C(=O)Cn1nnc2ccccc21 (stereo not shown) | -4.97
21 | COC(=O)c1ccc(CNC(=O)C2CCC(=O)N(CCc3ccccc3)C2)cc1 (stereo not shown) | 2.67
22 | Cc1ccc(NC(=O)c2ccc(=O)[nH]n2)cc1C | 3.53
23 | CCN(CC)S(=O)(=O)c1ccc2c(c1)nc(-c1ccccn1)n2C | 12

Row | SMILES | hERG current change (%, negative = inhibition) at 1uM [%]
24 | O=S(=O)(O)c1ccc(N=Nc2ccccc2)cc1 | 16.3
25 | CCN(CC)S(=O)(=O)c1cc(NC(=O)C2Cc3ccccc3C(=O)O2)ccc1C (stereo not shown) | -8.76
26 | O=C(C(F)C(F)(F)F)N1CCN(c2ccccc2)CC1 (stereo not shown) | 12
27 | CCNC(=S)Nc1scc(-c2ccccc2)c1C(=O)OCC | 16.5
28 | COCCNC(=O)C(c1ccc(O)cc1)N(Cc1ccccc1)C(=O)CCC(=O)Nc1nccs1 (stereo not shown) | 13.2
29 | O=C(c1cc(COc2cccc(C(F)(F)F)c2)on1)N1C[C@@H]2CCC[C@H]1C2 | 8.27
30 | CCCCOC(=O)CCn1[nH]c(=O)c2ccccc2c1=O | 4.23
31 | Cc1occc1C(=O)Nc1cccc(Cn2cccn2)c1 | -8.34
32 | COc1ccc(OCCC(=O)OCc2c(C)noc2C)cc1 | 8.57
33 | O=S(=O)(Nc1cccc(Oc2cnccn2)c1)c1ccc(F)cc1 | 15.9
34 | CNC(=O)CN(c1cccc2ccccc12)S(C)(=O)=O | 8.6
35 | CCn1nc(C)c(CNC(=O)c2ccc(OC3CCN(Cc4ccccn4)CC3)cc2)c1C | 9.24
36 | COc1ccc(-c2coc3c(CN4CCCCC4C)c(O)ccc3c2=O)cc1 (stereo not shown) | 7.15
37 | COc1ccccc1NC(=O)COC(=O)CCc1ccc(S(=O)(=O)N2CCOCC2)cc1 | 4.94
38 | S=C(Nc1ccc(Cl)c(Cl)c1)NC1CCN(Cc2ccccc2)CC1 | -0.625
39 | C=CCNC(=O)CN1C(=O)C2C3c4ccccc4C(c4ccccc43)C2C1=O (stereo not shown) | 20.2
40 | O=c1[nH]c(=S)[nH]c(O)c1N=Nc1cc(S(=O)(=O)Nc2ccc(Cl)cc2)ccc1Cl | 11.2
41 | Cc1nnnn1/C(=C\c1ccccc1)C(=O)OCC(=O)Nc1ccc(Cl)cc1F | 16.9
42 | CCCCn1c(=O)c(C(=O)NCc2ccccc2)c(O)c2ccccc21 | 12.9
43 | COCc1cc(=O)[nH]c(/N=C(\N)Nc2ccc(Oc3ccccc3)cc2)n1 | 5.37
44 | CCCn1nnc2ccccc2c1=O | 0.0784
45 | Cc1ccc(C(=O)NNC(=O)C2CCN(S(=O)(=O)c3ccc(C)cc3)CC2)cc1 | 0.756
46 | O=C1NC(=O)C2C3c4ccccc4C(c4ccccc43)C12 (stereo not shown) | 8.92

Row | SMILES | hERG current change (%, negative = inhibition) at 1uM [%]
47 | O=C(N/N=C/c1cccc([N+](=O)[O-])c1O)C(O)(c1ccccc1)c1ccccc1 | 18.6
48 | CC(C)CNc1ncnc2c1sc1nc(N3CCOCC3)c3c(c12)CC(C)(C)OC3 | 9.68
49 | CCN(c1ccccc1)S(=O)(=O)c1ccc(OC)c(NC(=O)CNC)c1.O=C(O)C(=O)O | 14.6
50 | COc1cc(NC(=O)c2ccccn2)cc(OC)c1OC | 7.6
51 | O=C(COC(=O)c1ccc[nH]c1=O)NC1CCCCC1 | 9.19
52 | Cc1ccc(-c2ocnc2C(=O)N2CCN(C(=O)c3cccs3)CC2)cc1 | 7.87
53 | c1ccc(-c2ncc(CSc3nncn3-c3ccccc3)s2)cc1 | 3.87
54 | CCOc1ccc(CC(=O)N/N=C/c2cccnc2)cc1 | 12.3
55 | CCN(CCCNC(=O)c1nn(C)c2c1CS(=O)(=O)c1ccccc1-2)Cc1ccccc1 | -3.66
56 | COc1ccc(/C=C2\SC(=N)N(c3ccc(F)cc3)C2=O)cc1 | -0.313
57 | CCOc1cc2[nH]c(=O)n(CC3CCC(C(=O)NCCCOC)CC3)c(=O)c2cc1OCC (stereo not shown) | 14.1
58 | Cc1ccc(CN2CC(C(=O)Nc3ccc4c(C)cc(=O)oc4c3)CC2=O)cc1 (stereo not shown) | 8.21
59 | CCOC(=O)C1CCN(C(=O)COC(=O)COc2ccc(Cl)cc2)CC1 | 14.9
60 | COC(=O)[C@H](CCSC)NC(=O)Nc1cc(C)ccc1C | 11.7
61 | CCC1CCc2sc(C(=O)NNC(=O)c3ccncc3)cc2C1 (stereo not shown) | -9.41
62 | CCC(C)C(NC(=O)C1CCC(C)CC1)C(=O)NCCc1ccc(S(N)(=O)=O)cc1 (stereo not shown) | 11.6
63 | CCCCNC(=O)O/N=C(\N)CS(=O)(=O)C(C)(C)C | 4.15
64 | COc1ccc(CNC(=O)/C=C/c2cc3c(cc2Br)OCO3)cc1 | 9.24
65 | CCc1cc2c(C)cc(C)cc2nc1SCC(=O)Nc1cc(C)on1 | 6.67
66 | O=C(Nc1nc(-c2ccc3c(c2)Cc2ccccc2-3)cs1)c1ccccc1 | 14.1
67 | CCCOc1ccc(-c2nc(-c3ccc([N+](=O)[O-])cc3)cs2)cc1 | 17.4
68 | O=C(CSc1ncnc2c1nnn2Cc1ccc(F)cc1)NCC1CCCO1 (stereo not shown) | -5.85
69 | COc1cc(CCNc2ccc3nnc(-c4ccccc4)n3n2)cc(OC)c1OC | 8.03

Row | SMILES | hERG current change (%, negative = inhibition) at 1uM [%]
70 | C=CCN(c1ccc(C(=O)N2CCN(c3ccc(F)cc3)CC2)cc1)S(C)(=O)=O | -10.7
71 | Cc1[nH]c2ccccc2c1C(c1ccccn1)N1CCC(C)CC1 (stereo not shown) | -7.79
72 | COc1ccc2[nH]c3c(Cl)ncnc3c2c1 | 13
73 | CC1CCN(c2ccc(NC(=O)c3ccc(Br)o3)cc2)CC1 | 2.79
74 | CCOC(=O)C1(Cc2ccccc2)CCCN(S(=O)(=O)N(C)C)C1 (stereo not shown) | 6.63
75 | COc1ccc(OCC(=O)Nc2nc3c(s2)CCCC3)cc1 | 8.14
76 | O=C(Oc1cc(Cl)ccc1Cl)c1ccc(N2CCOCC2)c([N+](=O)[O-])c1 | 6.97
77 | CCOc1cc(/C=N/NC(=O)COc2ccccc2C)ccc1OC(=O)c1cccs1 | 3.1
78 | CC#CC(=O)N1CCC(CO)(CCc2ccccc2)CC1 | 1.33
79 | COc1ccc(NC(=O)CCCn2c(=S)[nH]c3ccccc3c2=O)cc1 | 10.7
80 | CCn1c(SCc2nc3ccccc3[nH]2)nnc1-c1cccnc1 | 9.55
81 | O=C1CCN(C(=O)/C=C/c2ccccc2)c2ccccc21 | 7.67
82 | COc1cccc(OC)c1Oc1ccc(C(F)(F)F)cn1 | 7.58
83 | Cc1ccc(C)c(N(CC(=O)NC2CCCCC2)C(=O)c2csnn2)c1 | 16.5
84 | CCOC(=O)CC(=O)Nc1c(C)cc(C)cc1C | -2.24
85 | c1ccc(-c2cc(-c3ccccc3)n3ncnc3n2)cc1 | 7.3
86 | CCOC(=O)C1=C(N)Oc2cc(C)n(CCc3ccc(OC)c(OC)c3)c(=O)c2C1c1cccnc1 (stereo not shown) | -3.42
87 | CCC1CCCCN1S(=O)(=O)c1ccc(NC(=O)C2CCN(C(=O)c3ccco3)CC2)cc1 (stereo not shown) | 16.4
88 | CCOC(=O)c1c(N)sc(C(C)=O)c1C | 9.14
89 | CCn1c(SCC(=O)Nc2nonc2C)nnc1-c1ccco1 | 3.45
90 | CC(C)NC(=O)CSc1nc2ccccc2c(=O)n1CCCOC(C)C | 12.4
91 | N#Cc1cc([N+](=O)[O-])cnc1NCC(O)CO (stereo not shown) | -1.12
